Test results as given in PubChem BioAssay AID588855 (National Center for Advancing Translational Sciences (NCATS), 2011).
Hit rate of the full screen: of about 410,000 compounds, about 5,000 (1.2%) were called active. This list was built around the results that the source calls inconclusive (neither active nor inactive); the mix of calls is not that of the screen. Calls come from the whole dose curve; as a rule, active = well fitted inhibition curve with a large enough effect; inconclusive = small, poorly fitted or top-dose-only effect; inactive = no such curve, though single readings can be large or run the other way. A potency beside an inconclusive call is a rough fit, not a confirmed value.

Test: qHTS for Inhibitors of TGF-b; note: nearly all actives have a fitted effect of over 65% in size
Settings: HepG2 CAGA-GFP TGF-b/SMAD3 reporter, GFP fluorescence, 18 h, TGF-beta stimulated, 500 pg/mL final; series mostly up to 46.1 µM; activity, negative = inhibition: at the top concentration
How it was run: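 Cell-based qHTS in HEPG2 carrying a CAGA-GFP Smad reporter; compounds added before 500 pg/mL final TGF-beta, 18 h incubation at 37 degrees C, GFP fluorescence quantified per cell by imaging cytometry.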
% is set by controls: 0 for no effect and ±100 for the full control effect; potency is the fitted concentration of half-maximal effect; tags give direction and shape of the fitted curve.

Structure (SMILES)	Potency	activity, negative = inhibition
CCCCN(CC)CCNC(=O)Cn1cnc2sc(C)c(S(=O)(=O)N3CCC(C)CC3)c2c1=O	inactive	–
Cc1cccc(S(=O)(=O)NC2CCCCCCC2)c1	–	inactive: -35.7%
Cc1ccc(S(=O)(=O)N(CCCO)CC(O)CON=C2c3ccccc3-c3ccccc32)cc1 (configuration not stated)	inconclusive: 35.5 µM [inhibitor, single point]	–
O=C(Nc1ccc(F)c(F)c1)C1CCN(S(=O)(=O)c2cccs2)CC1	inconclusive: 12.6 µM [inhibitor, partial curve, poor fit]	–
COCCn1c(=N)c(S(=O)(=O)c2ccc(Br)cc2)cc2c(=O)n3ccccc3nc21	–	inactive: -0.698%
O=S1(=O)CC(N2CCN(c3ccccn3)CC2)CN1Cc1ccc(F)cc1 (configuration not stated)	inconclusive: 2.82 µM [inhibitor, partial curve, poor fit]	–
COc1cc(NC(=O)CSCc2cnn(-c3ccccc3)c2-n2cccc2)cc(OC)c1	inconclusive: 2.51 µM [inhibitor, partial curve, poor fit]	–
CC(C)(C)n1nnnc1CN(Cc1ccco1)Cc1cc2cc3c(cc2[nH]c1=O)OCO3	inconclusive: 6.31 µM [inhibitor, single point]	–
CN(C)CC(O)COC(c1ccccc1)c1ccccc1 (configuration not stated)	–	inactive: 3.45%
Cc1c(NC(=O)c2ccc(CN3CCc4ccccc4C3)cc2)c(=O)n(-c2ccccc2)n1C	inconclusive: 35.5 µM [inhibitor, single point]	–
CCc1nc(SCC(=O)N2c3ccccc3CC2C)c2c(C)c(C)sc2n1 (configuration not stated)	inconclusive: 31.6 µM [inhibitor, single point]	–
CC(NC(=O)COc1ccc(/C=N/NC(=O)C(=O)Nc2ccccc2Br)cc1)c1ccccc1 (configuration not stated)	inconclusive: 35.5 µM [inhibitor, single point]	–
CCC(=O)Nc1nnc(S(=O)(=O)N(C)Cc2ccccc2)s1	–	inactive: -2.26%
CCn1ccc(C(=O)Nc2ccc(N(C)C(C)=O)cc2)n1	inconclusive: 35.5 µM [inhibitor, single point]	–
CCOC(=O)CN[C@H]1CCC2C3CC=C4C[C@@H](O)CC[C@]4(C)C3CC[C@@]21C (some centres not stated)	–	inactive: 9.88%
COc1ccc(CNS(=O)(=O)c2ccc(C3CNC(=O)C3)cc2)cc1 (configuration not stated)	–	inactive: -13.6%
Cc1c(C(=O)Nc2ccccc2Br)oc2ccc(S(=O)(=O)N3CCCCC3)cc12	–	inactive: -21.7%
O=C1CC(/C=C/c2ccc(Cl)cc2)=Nc2ccccc2N1	active: 11.2 µM	–
COc1cccc(CN(CC(=O)NCc2ccco2)C(=O)CNS(=O)(=O)c2ccccc2)c1	inconclusive: 6.31 µM [inhibitor, full curve, poor fit]	–
Cc1ccc(C(=O)NC(NC(=O)c2ccc(C)cc2)c2cccc([N+](=O)[O-])c2)cc1	inconclusive: 31.6 µM [inhibitor, partial curve, poor fit]	–
CN(CCc1ccccc1)C(=O)c1ccc(NC(=O)Cc2ccc(NC(=O)C3CCN(C(=O)C4CCCC4)CC3)cc2)cc1	–	inactive: 1.49%

Structure (SMILES)	Potency	activity, negative = inhibition
COc1cccc(/C=C2/Sc3ccc(C(=O)NCCN4CCCC4)cc3NC2=O)c1	inconclusive: 14.1 µM [inhibitor, single point]	–
CCOC(=O)Nc1ccc2c(c1)N(C(=O)CN)c1ccccc1CC2	inconclusive: 12.6 µM [inhibitor, partial curve, poor fit]	–
Cc1sc2ncn(CC(=O)Nc3cccc(C(F)(F)F)c3)c(=O)c2c1S(=O)(=O)N1CCC(C)CC1	inconclusive: 6.31 µM [inhibitor, single point]	–
COc1cccc(C(=O)NC(=O)Nc2ccc(-c3cc(C(F)(F)F)nn3-c3ccccc3)cc2)c1	inconclusive: 12.6 µM [inhibitor, single point]	–
CC(=O)c1cccc(CN2CCCCC2C(=O)Nc2ccc(Oc3ccccc3)nc2)c1 (configuration not stated)	inconclusive: 8.91 µM [inhibitor, partial curve, poor fit]	–
CCOC(=O)C1=C(CN2CCN(c3ccccc3)CC2)NC(=O)NC1c1ccc(C)cc1 (configuration not stated)	inconclusive: 15.8 µM [inhibitor, single point]	–
COc1ccc(C2c3c(-c4ccccc4O)n[nH]c3C(=O)N2Cc2ccco2)cc1 (configuration not stated)	inconclusive: 35.5 µM [inhibitor, single point]	–
CN(C(=O)COC(=O)c1cc[n+]([O-])cc1)c1ccccc1	–	inactive: -8.65%
CN1CCN(C2=C(Cl)C(=O)N(C3CCCCC3)C2=O)CC1	active: 12.6 µM	–
Cc1cccc(NC(=O)CSc2cccc3cccnc23)c1	inconclusive: 35.5 µM [inhibitor, single point]	–
O=C(/C=C/c1cn(CC(O)CN2CCCCCC2)c2ccccc12)c1ccccc1 (configuration not stated)	inconclusive: 35.5 µM [inhibitor, partial curve, poor fit]	–
COc1ccc(N2C(=O)C(CC(=O)Nc3ccccc3)N(Cc3ccc4c(c3)OCO4)C2=O)cc1 (configuration not stated)	inconclusive: 7.08 µM [inhibitor, full curve, poor fit]	–
CCOC(=O)C(=CNc1ccc2c(c1)c1ccccc1n2CC)C(=O)OCC	inconclusive: 14.1 µM [inhibitor, single point]	–
Cc1ccc(NC(=O)Cn2cc(C=O)c3ccccc32)cc1C	inconclusive: 4.47 µM [inhibitor, partial curve, poor fit]	–
COc1ccc(-n2ccnc(NCCc3ccc(S(N)(=O)=O)cc3)c2=O)cc1	–	inactive: -5.03%
COc1cc(/C=C/c2nc(C#N)c(NC3CCCCC3)o2)cc(OC)c1OC	inconclusive: 35.5 µM [inhibitor, single point]	–
CCCCOP(=O)(c1ccc(N(C)C)cc1)C(O)c1c(Cl)cccc1Cl (configuration not stated)	–	inactive: -11.2%
CC(C)(C)c1ccc(-c2nc(C=O)c3ccccn23)cc1	–	inactive: 0.552%
COc1ccc(C(=O)NCCc2ccc(Cl)cc2)cc1S(=O)(=O)N1CCCCC1C (configuration not stated)	inconclusive: 22.4 µM [inhibitor, single point]	–
CCOC(=O)N1CCc2c(sc3c2c(=O)n(-c2ccc(Cl)cc2)c(=O)n3CC(=O)c2ccc(F)cc2)C1	–	inactive: 0.162%
Fc1ccc(NC(=S)NN=C2CCCCCC2)cc1	inconclusive: 17.8 µM [inhibitor, partial curve, poor fit]	–
